# Measurements published in PubChem BioAssay AID1671193 (National Center for Advancing Translational Sciences (NCATS), 2021).
# The whole screen tested about 150,000 compounds, of which about 180 (0.12%) were called active. The inconclusive results got no clear call from the source; some entries with a clear call stand among them for comparison. Calls come from the whole dose curve; as a rule, active = well fitted cell-killing curve with a large enough effect; inconclusive = small, poorly fitted or top-dose-only effect, or effect the other way; inactive = flat fitted curve, though single readings scatter. Potencies of inconclusive entries are doubtful fits and often do not repeat.
# Experiment: GF-AFC viability counterscreen for inhibitors of alpha-synuclein gene (SNCA) expression; note: nearly all actives have a fitted effect of over 30% in size;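 for activity change, negative = cytotoxicity: 0% = DMSO-treated cells and -100% = medium-only wells without cells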
# Details: HEK-293-SNCA-luc viability, GF-AFC fluorescence, 24 h; activity change, negative = cytotoxicity: at 57.1 µM (top of the series) unless noted
# Outline: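 HEK-293-SNCA-luc cells (1500/well) plated 24 h, then exposed 24 h to a dilution series; GF-AFC added 30 min at 37C, fluorescence 405/540 nm; normalised to medium-only and DMSO wells, Hill fit.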
# Potency is the fitted concentration of half-maximal effect; tags give direction and shape of the fitted curve.
Structure (SMILES),Potency,"activity change, negative = cytotoxicity"
CO[C@H]1CN(C2CCN(C(=O)c3cc(C)n(C)n3)CC2)[C@H]1c1cccnc1,"inconclusive: 39.8 µM [cytotoxic, single point]",–
Cc1nn2c(c1-c1ccccc1N1CCCC1)N(C(=O)COc1ccccc1)CCC2,"inconclusive: 31.6 µM [cytotoxic, single point]",–
CSc1ccc(-c2noc(-c3nnn4c3COC(c3ccc(F)cc3)C4)n2)cc1 (stereo unspecified),inactive,–
CC1=C[C@@H](CNS(C)(=O)=O)[C@H](C(C)C)C[C@H]1Cc1nc2ccc(F)cc2[nH]1,"inconclusive: 35.5 µM [cytotoxic, partial curve, poor fit]",–
CCn1c(=N)c(C(=O)NCC2CCCO2)cc2c(=O)n3cc(C)ccc3nc21 (stereo unspecified),"inconclusive: 7.94 µM [rising, partial curve, poor fit]",–
COc1ccc(CNC(=O)[C@@H]2Cc3c[nH]c4cccc(c34)[C@H](CC(C)C)N2)cc1,"inconclusive: 31.6 µM [cytotoxic, single point]",–
O=C(Cn1nc2c(cc1=O)CCCCC2)NCc1ccc(C(=O)O)cc1,inactive,–
Cc1nc2cccnc2n1CC1CCCN(C(=O)Nc2cccc(Cl)c2)C1 (stereo unspecified),"inconclusive: 25.1 µM [cytotoxic, single point]",–
CCCOc1ccc(C2c3c(-c4ccccc4O)n[nH]c3C(=O)N2Cc2cccnc2)cc1 (stereo unspecified),"inconclusive: 39.8 µM [cytotoxic, single point]",–
COc1ccc(C(=O)Nc2cc(-c3ccncc3)nn2C)cc1,"inconclusive: 15.8 µM [cytotoxic, partial curve]",–
CN(C(=O)c1ccc(C(F)(F)F)cc1)C1CCc2ccccc21 (stereo unspecified),inactive,–
CCNc1ncc2nc(-c3ccccc3)c(=O)n(Cc3cccs3)c2n1,"inconclusive: 12.6 µM [rising, partial curve, poor fit]",–
COc1ccc(NC(=O)Nc2cc(-c3cn4cccnc4n3)ccc2OC)cc1,"inconclusive: 22.4 µM [cytotoxic, partial curve, poor fit]",–
CC1CCN(C(=O)Cn2cc(SCc3cccc(F)c3)c3ccccc32)CC1,"inconclusive: 25.1 µM [cytotoxic, partial curve, poor fit]",–
O=C(Nc1cccc(-c2nnc3n2CCCC3)c1)c1ccc2c(c1)OCO2,"inconclusive: 25.1 µM [cytotoxic, single point]",–
COc1cccc(NC(=O)N2CC[C@@H](CC(=O)O)[C@@H](CC3=NCCc4cc(OC)c(OC)cc43)C2)c1,inactive,–
Fc1ccc(CNC2(Cc3cc(-c4ccccn4)on3)COC2)cc1,inactive,–
CC1(c2ccccc2)N(Cc2cccnc2)C(=O)OC12CCN(C(=O)COc1ccccc1C(N)=O)CC2 (stereo unspecified),inactive,–
O=C(CCc1ccccc1)N1CCC(c2n[nH]c(=O)n2-c2ccccc2)CC1,inactive,–
CC1CCN(C(=O)Cn2cc(SCc3ccccc3)c3ccccc32)CC1,"inconclusive: 15.8 µM [cytotoxic, partial curve, poor fit]",–
CC(C)(C)c1ccnc(N[C@H]2CO[C@H]3[C@@H]2OC[C@@H]3NS(=O)(=O)c2cccs2)n1,inactive,–
COc1ccc(-n2c(=O)c3ccccc3n(CC(=O)NCCc3ccccc3)c2=O)c(OC)c1,"inconclusive: 5.01 µM [cytotoxic, partial curve]",–

Structure (SMILES),Potency,"activity change, negative = cytotoxicity"
CN(C)C(=O)c1c[nH]c2cccnc12,"inconclusive: 8.91 µM [cytotoxic, single point]",–
CCCc1noc(-c2nc(-c3ccccc3F)no2)n1,inactive,–
Cc1noc(-c2cn(C3CCN(C(=O)Cc4ccc(OC(F)(F)F)cc4)CC3)nn2)n1,inactive,–
CN1CCC(N2CCC(O)(c3csc(CN4CCc5ccccc5C4)n3)CC2)CC1,inactive,–
CCCN1C(=O)C(O)(CC(=O)c2ccc(CC)cc2)c2cc(Br)ccc21 (stereo unspecified),"inconclusive: 31.6 µM [cytotoxic, partial curve, poor fit]",–
CCn1cnnc1CC1CCCNC1 (stereo unspecified),inactive,–
CCOc1ccccc1NC(=O)CN1C(=O)COc2ccc(S(=O)(=O)N3CCCCCC3)cc21,"inconclusive: 2.24 µM [cytotoxic, full curve, poor fit]",–
Cc1nc(N2CCN(C(=O)Cc3cccs3)CC2)cc(C(F)(F)F)n1,inactive,–
O=C(NCCCc1ccccc1)C1(CCO)CCN(c2ncccn2)C1 (stereo unspecified),inactive,–
FC(F)(F)c1ccccc1-c1cncnc1-n1ccnc1,"inconclusive: 7.08 µM [cytotoxic, single point]",–
CC1CCN(C(=O)CCNc2c(-c3ccc(F)cc3)nc3cnccn23)CC1,"inconclusive: 35.5 µM [rising, single point]",–
Cc1c(Cl)cccc1NC(=O)CC(c1cccs1)N1Cc2ccccc2C1=O (stereo unspecified),"inconclusive: 17.8 µM [cytotoxic, single point]",–
CCOC(=O)C1CCN(c2c(C(=O)c3ccc(OCC)cc3)cnc3ccc(OC)cc23)CC1,"inconclusive: 35.5 µM [cytotoxic, single point]",–
COc1ccc(-c2nc3cnc(N(C)C)nc3n(-c3ccccc3)c2=O)cc1,"inconclusive: 8.91 µM [rising, partial curve, poor fit]",–
COc1ccc2nc([C@H]3CCN(Cc4ccc(F)cc4)C3)[nH]c2c1,inactive,–
Cc1ccc(Cn2c(-c3cccc(Cl)c3)nc(C)c(CCO)c2=O)cc1,inactive,–
Cc1cc(N2CCN(C)CC2)nc2ccc(NC(=O)Nc3ccccc3Br)cc12,"inconclusive: 25.1 µM [cytotoxic, single point]",–
CC(=O)Nc1ccc(S(=O)(=O)N[C@H]2C[C@@H](c3nc(-c4ccc(F)cc4)no3)N(C)C2)cc1,inactive,–
Cc1ccc(OCc2nc(C3CCN(C(=O)c4c5c(nc6ccccc46)CCCC5)CC3)no2)cc1,"inconclusive: 14.1 µM [cytotoxic, partial curve, poor fit]",–
O=C1CC2(CCN(Cc3ccc(F)cc3)CC2)Oc2ccccc2N1,"inconclusive: 31.6 µM [cytotoxic, single point]",–
COc1ccc(C(=O)Nc2ccc(-n3nncc3-c3ccc(OC)c(OC)c3)cc2)cc1,"inconclusive: 39.8 µM [cytotoxic, single point]",–
CCN(CC)CC(=O)Nc1c(C)cccc1C,–,inconclusive: 99.8% [at 23.9 µM]

Structure (SMILES),Potency,"activity change, negative = cytotoxicity"
CC1(C)[C@H](Cc2cc(COc3ccccc3)on2)C[C@@H]1NC1CCC1,inactive,–
COc1ccc(-c2noc(C(=O)O)c2[C@@H](C)NC(=O)c2cccn2C)cc1,inactive,–
COc1ccc(C2Cn3nnc(C(=O)N4CCN(C(=O)c5cccc(C)c5)CC4)c3CO2)cc1 (stereo unspecified),inactive,–
CC(C)C[C@@H]1N[C@H](C(=O)NCC2CC2)Cc2cn(Cc3nccn3C)c3cccc1c23,"inconclusive: 56.2 µM [cytotoxic, single point]",–
COc1c(C)c2c(c(O)c1CC=C(C)CCC(=O)OCCN1CCOCC1)C(=O)OC2,"inconclusive: 27.1 µM [cytotoxic, partial curve]",–
CC(C)c1ccc(C(=O)N2CCC(n3c(=O)[nH]c4ccccc43)CC2)cc1,inactive,–
COc1ccccc1NC(=O)Cn1c(=O)n(Cc2ccco2)c(=O)c2oc3ccccc3c21,"inconclusive: 8.91 µM [cytotoxic, full curve, poor fit]",–
COc1cccc(NC(=O)CSc2nc3ccc(NC(=O)c4ccco4)cc3s2)c1,"inconclusive: 22.4 µM [cytotoxic, single point]",–
Cc1nn(-c2ccc(C(F)(F)F)cc2)c(C)c1[C@@H]1C=C[C@@H](NC(=O)c2cccs2)C1,"inconclusive: 31.6 µM [cytotoxic, partial curve, poor fit]",–
O=C(O)[C@@H]1C[C@H](C(=O)O)N1,"inconclusive: 14.1 µM [cytotoxic, partial curve, poor fit]",–
CCn1nc(C)c(CNC(=O)C2(CCO)CC23CCOCC3)c1C (stereo unspecified),"inconclusive: 7.08 µM [cytotoxic, single point]",–
O=C(CCc1ccc(CC2CCN(C(=O)NCC3CCCO3)CC2)cc1)NCC1CC1 (stereo unspecified),"inconclusive: 3.55 µM [cytotoxic, single point]",–
O=C(CSc1nc(-c2ccccc2)[nH]c1-c1ccccc1)Nc1ccc2c(c1)OCCO2,"inconclusive: 15.8 µM [cytotoxic, partial curve]",–
c1ccc(CN2CCC(Cc3ccc(CN4CCCC4)cc3)CC2)nc1,inactive,–
CC(C)c1ccccc1NC(=O)CN1C(=O)c2cccc3cccc1c23,"inconclusive: 20 µM [rising, partial curve, poor fit]",–
O=C(Nc1cc(Cl)cc(Cl)c1)N1CCCC1c1nncn1C1CCCC1 (stereo unspecified),"inconclusive: 5.62 µM [cytotoxic, partial curve]",–
CC(C)C(=O)NCC1CN(Cc2ccccc2)C(=O)c2c(ccnc2-c2ccc(OCC(=O)O)cc2)O1 (stereo unspecified),"inconclusive: 10 µM [cytotoxic, partial curve]",–
COc1ccc(CC(=O)NC2CCN(Cc3ccc(-c4ccsc4)cc3)C2)cc1 (stereo unspecified),inactive,–
COC[C@H]1CCCN1C[C@@H]1C=C(C)[C@H](Cc2nnc(-c3cccnc3)o2)C[C@H]1C(C)C,"inconclusive: 31.6 µM [cytotoxic, single point]",–
CCC(C)NC(=O)c1sc2nc(C)c(C(=O)Nc3ccc(C)cc3C)c(-c3ccc(Cl)cc3)c2c1N (stereo unspecified),"inconclusive: 35.5 µM [rising, single point]",–
NC(=O)CCNC(=O)C1=C[C@@H](NC(=O)NC2CCCCC2)[C@@H](O)[C@H](O)C1,"inconclusive: 3.16 µM [rising, full curve, poor fit]",–
c1ccc(CN2CCC(Oc3nccnc3N3CCc4ccccc43)C2)nc1 (stereo unspecified),inactive,–
